Among the test systems are A101D; A2058; A375; 501Mel.
Holding throughout (assay): cell count relative to DMSO control; melanoma cells; higher = more viable cells
What all share (conditions): library dose: standard library concentration; 72 h

The structures appear in SMILES notation. This is one part of the list. Repeats are few or missing, and single values can be far off.
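Note: cells treated in 1,536-well plates, then fixed and DAPI-stained, with nuclei counted from automated high-throughput microscope images.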

Consider `O=c1[nH]nc(Sc2ncc([N+](=O)[O-])s2)n1-c1ccc2c(c1)OCCO2` + NC(=O)Nc1cc(-c2cccc(F)c2)sc1C(=O)N[C@H]1CCCNC1 [AZD7762] (first compound 1 µM, partner dose 0.1 µM), for which the cell count came out at 61.1% in the test with A101D, 67.8% in the test with A2058 and 48.3% with A375.
Take `O=c1[nH]nc(Sc2ncc([N+](=O)[O-])s2)n1-c1ccc2c(c1)OCCO2` + CC1(C)NC(=O)N(c2ccc([N+](=O)[O-])c(C(F)(F)F)c2)C1=O [nilutamide] (first compound 1 µM, partner dose 5 µM): the results for the cell count in the test on A101D, with A2058 and in the test with A375 were 105%, 98% and 52.1%, respectively.
For the compound `CC1(C)NC(=O)N(c2ccc([N+](=O)[O-])c(C(F)(F)F)c2)C1=O` [nilutamide] + CCc1ccc(CCOc2ccc(CC3SC(=O)NC3=O)cc2)nc1 [pioglitazone] (first compound 5 µM, partner dose 10 µM), the cell count in the test on 501Mel stood at 76.3%; in the test with A101D, 92%; with A2058, 97%; with A375, 99.4%.
Turning to `O=c1[nH]nc(Sc2ncc([N+](=O)[O-])s2)n1-c1ccc2c(c1)OCCO2` + C[C@@H]1CCN(C(=O)CC#N)C[C@@H]1N(C)c1ncnc2[nH]ccc12 [CP690550] (first compound 1 µM, partner dose 5 µM), the cell count in the test with A101D turned out to be 95.3%; in the test with A2058, 79.9%; in the test on A375 it was 84.2%.
`O=C(Nc1cccc(Cl)c1)Nc1ncc(CCNc2ncnc3ccsc23)s1` + O=C(O)c1ccc(-c2c[nH]c3ncc(-c4ccccc4)cc23)cc1C1CCCC1 [GSK650394] (first compound 0.004 µM, partner dose 0.8 µM): the cell count with A101D worked out at 76%; with A2058, 71.4%; in the test with A375, 81.3%.
Turning to `O=c1[nH]nc(Sc2ncc([N+](=O)[O-])s2)n1-c1ccc2c(c1)OCCO2` + OCc1c[nH]c2ccccc12 [Indole-3-carbinol] (first compound 1 µM, partner dose 4 µM), the cell count with A101D stood at 96%; with A2058 it was 97%; with A375, 79.2%.
On to `O=c1[nH]nc(Sc2ncc([N+](=O)[O-])s2)n1-c1ccc2c(c1)OCCO2` + O=c1cc(-c2cccc3c2Sc2ccccc2S3)oc(N2CCOCC2)c1 [KU55933] (first compound 1 µM, partner dose 5 µM), for which the cell count in the test with 501Mel is 105%; in the test on A101D, 86.1%; in the test on A2058, 88%; with A375, 112%.
On the same counts, the results for `C[C@@H]1CCN(C(=O)CC#N)C[C@@H]1N(C)c1ncnc2[nH]ccc12` + COc1ccc2c(c1)CCC1C2CCC2(C)C(NCCCCCCN3C(=O)C=CC3=O)CCC12 [U73122] (first compound 5 µM, partner dose 2 µM) are 65.9%, 91.7%, 101% and 154%.
`Cn1cncc1[C@@](N)(c1ccc(Cl)cc1)c1ccc2c(c1)c(-c1cccc(Cl)c1)cc(=O)n2C` [tipifarnib] + CN(C)S(=O)(=O)c1ccc2c(c1)/C(=C/c1cc3c([nH]1)CCCC3)C(=O)N2 [SU6656] (first compound 0.05 µM, partner dose 2 µM): the cell count with A101D stood at 64.6%; in the test on A2058, 68.1%; with A375, 87.4%.
The corresponding values for `C[C@@H]1CCN(C(=O)CC#N)C[C@@H]1N(C)c1ncnc2[nH]ccc12` + O=C(O)c1ccc(-c2c[nH]c3ncc(-c4ccccc4)cc23)cc1C1CCCC1 [GSK650394] (first compound 5 µM, partner dose 0.8 µM) are 86.7%, 122% and 96.6%.
On the same counts, the results for `O=c1[nH]nc(Sc2ncc([N+](=O)[O-])s2)n1-c1ccc2c(c1)OCCO2` + O=C(O)c1ccc2c(c1)nc(Nc1cccc(Cl)c1)c1ccncc12 [CX4945] (first compound 1 µM, partner dose 2 µM) are 87.8%, 74.1% and 71.1%.
As for `O=c1[nH]nc(Sc2ncc([N+](=O)[O-])s2)n1-c1ccc2c(c1)OCCO2` + COc1cc(Nc2ncc(F)c(Nc3ccc4c(n3)NC(=O)C(C)(C)O4)n2)cc(OC)c1OC [Tamatinib] (first compound 1 µM, partner dose 2 µM), the cell count in the test with A101D came out at 45.7%; in the test with A2058 it was 81.2%; in the test with A375, 93.7%.
The corresponding values for `C[C@@H]1CCN(C(=O)CC#N)C[C@@H]1N(C)c1ncnc2[nH]ccc12` + CN(NC(=O)CC(=O)NN(C)C(=S)c1ccccc1)C(=S)c1ccccc1 [STA4783] (first compound 5 µM, partner dose 0.03 µM) are 56%, 9.24% and 111%.
The corresponding values for `COc1cc(Nc2ncc(F)c(Nc3ccc4c(n3)NC(=O)C(C)(C)O4)n2)cc(OC)c1OC` [Tamatinib] + COc1cc2c(Oc3ccc4[nH]c(C)cc4c3F)ncnc2cc1OCCCN1CCCC1 [cediranib] (first compound 2 µM, partner dose 2 µM) are 27.1%, 75.1% and 109%.
On the same counts, the results for `CC1(C)NC(=O)N(c2ccc([N+](=O)[O-])c(C(F)(F)F)c2)C1=O` [nilutamide] + C=CCn1c(=O)c2cnc(Nc3ccc(N4CCN(C)CC4)cc3)nc2n1-c1cccc(C(C)(C)O)n1 [MK1775] (first compound 5 µM, partner dose 0.1 µM) are 66.9%, 81.1% and 57.5%.
Turning to `O=c1[nH]nc(Sc2ncc([N+](=O)[O-])s2)n1-c1ccc2c(c1)OCCO2` + Cc1ccc(NC(=O)c2cccc(N(C)C)c2)cc1NC(=O)c1ccc(O)cc1 [ZM336372] (first compound 1 µM, partner dose 10 µM), the cell count was found to be 69.3% with A101D, 99.9% with A2058 and 93.9% in the test with A375.
The corresponding values for `O=c1[nH]nc(Sc2ncc([N+](=O)[O-])s2)n1-c1ccc2c(c1)OCCO2` + CN(c1ncccc1CNc1nc(Nc2ccc3c(c2)CC(=O)N3)ncc1C(F)(F)F)S(C)(=O)=O [PF562271] (first compound 1 µM, partner dose 0.4 µM) are 70.9%, 86.7% and 58.9%.
On the same counts, the results for `O=c1[nH]nc(Sc2ncc([N+](=O)[O-])s2)n1-c1ccc2c(c1)OCCO2` + CCCCCCCCc1ccc(CCC(N)(CO)CO)cc1 [fingolimod] (first compound 1 µM, partner dose 10 µM) are 6.46%, 6.45% and 26.5%.
On the same counts, the results for `O=c1[nH]nc(Sc2ncc([N+](=O)[O-])s2)n1-c1ccc2c(c1)OCCO2` + Clc1ccc(Nc2nnc(Cc3ccncc3)c3ccccc23)cc1 [vatalanib] (first compound 1 µM, partner dose 10 µM) are 67.1%, 81.6% and 86.6%.
Take `O=c1[nH]nc(Sc2ncc([N+](=O)[O-])s2)n1-c1ccc2c(c1)OCCO2` + Nc1ccn([C@@H]2O[C@H](CO)[C@@H](O)C2(F)F)c(=O)n1 [gemcitabine] (first compound 1 µM, partner dose 0.002 µM): the cell count in the test on A101D turned out to be 81.1%; in the test on A2058, 53.4%; in the test with A375, 99%.
The corresponding values for `COc1cc(Nc2ncc(F)c(Nc3ccc4c(n3)NC(=O)C(C)(C)O4)n2)cc(OC)c1OC` [Tamatinib] + CN(NC(=O)CC(=O)NN(C)C(=S)c1ccccc1)C(=S)c1ccccc1 [STA4783] (first compound 2 µM, partner dose 0.03 µM) are 12.5%, 8.78% and 119%.
On the same counts, the results for `O=C(O)c1ccc(-c2c[nH]c3ncc(-c4ccccc4)cc23)cc1C1CCCC1` + NCC(=O)Nc1ccc(-n2nc(C(F)(F)F)cc2-c2ccc3c(ccc4ccccc43)c2)cc1 [OSU03012] (first compound 0.8 µM, partner dose 5 µM) are 74.8%, 81.7% and 63%.
As for `O=c1[nH]nc(Sc2ncc([N+](=O)[O-])s2)n1-c1ccc2c(c1)OCCO2` + Cn1nnc2c(C(N)=O)ncn2c1=O [temozolomide] (first compound 1 µM, partner dose 10 µM), the cell count came to 66.6% with A101D, 46% in the test with A2058 and 80.2% in the test with A375.
The corresponding values for `O=c1[nH]nc(Sc2ncc([N+](=O)[O-])s2)n1-c1ccc2c(c1)OCCO2` + Nc1cccc2c1CN(C1CCC(=O)NC1=O)C2=O [lenalidomide] (first compound 1 µM, partner dose 5 µM) are 83.2%, 95.1% and 86.3%.
On the same counts, the results for `O=c1[nH]nc(Sc2ncc([N+](=O)[O-])s2)n1-c1ccc2c(c1)OCCO2` + O=C(Nc1cccc(Cl)c1)Nc1ncc(CCNc2ncnc3ccsc23)s1 [SNS314] (first compound 1 µM, partner dose 0.004 µM) are 65.3%, 79.6% and 95.1%.
The corresponding values for `CC1(C)NC(=O)N(c2ccc([N+](=O)[O-])c(C(F)(F)F)c2)C1=O` [nilutamide] + O=C(O)c1ccc(-c2c[nH]c3ncc(-c4ccccc4)cc23)cc1C1CCCC1 [GSK650394] (first compound 5 µM, partner dose 0.8 µM) are 71.7%, 84.4% and 90.2%.

The values above are taken from the supplement of paper PMC4604168 (melanoma cell lines).
